According to PubChem BioAssay AID686978 (National Center for Advancing Translational Sciences (NCATS), 2013):
Screen size: about 420,000 compounds; about 64,000 (15%) were called active. Inconclusive results, whose numbers are uncertain, are shown with a selection of clear calls. The call rests on the fitted dose curve; in most records, active means well fitted inhibition curve with a large enough effect; inconclusive means small, poorly fitted or top-dose-only effect; inactive means flat fitted curve, though single readings scatter. Potencies of inconclusive entries are left out as doubtful fits.

Assay: qHTS for Inhibitors of human tyrosyl-DNA phosphodiesterase 1 (TDP1): qHTS in cells in absence of CPT; further: nearly all actives have a fitted effect of over 55% in size
Details: DT40 Tdp1-/- hTDP1 cells, no CPT, ATP luminescence, 48 h; activity change, negative = growth inhibition: at 46.2 µM (top of the series) unless noted
Summary of the method: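 DT40 Tdp1-/-;hTDP1 cells, no CPT (DMSO vehicle only), 400 cells/well; compounds pin-transferred; ≥48 hr, 37 °C; CellTiter-Glo 30 min RT dark, luminescence read.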
On the % scale 0 is the no-effect control and ±100 the full control effect; potency means the concentration at half of the fitted maximal effect; tags describe the fitted curve by direction and shape.

| Structure (SMILES) | activity change, negative = growth inhibition | Potency |
| --- | --- | --- |
| O=C(O)CCSC(=S)N1CCOCC1 | inactive: 11.1% | – |
| CCOC(=O)c1[nH]c(C)c(C(=O)N2CCc3c([nH]c4ccccc34)C2c2ccccn2)c1C (stereo not drawn) | – | inconclusive [inhibitor, single point] |
| Cc1cc(C)cc(SCc2noc(C(=O)NCCC(C)C)c2C(=O)NCCC(C)C)c1 | – | inconclusive [inhibitor, single point] |
| COc1ccccc1C(=O)Nc1c(C(=O)N2CCN(c3ccccc3F)CC2)oc2ccccc12 | – | active: 16.4 µM |
| Cc1ccc(CNC(=O)c2ccc3c(c2)NC(=O)C(CS(=O)(=O)Cc2ccc(F)cc2)N3)cc1 (stereo not drawn) | – | inconclusive [inhibitor, partial curve, poor fit] |
| CSc1nsc(SCC(=O)N2CCN(c3ccccc3)CC2)n1 | – | inconclusive [inhibitor, partial curve, poor fit] |
| CCc1ccc(NC(=O)C(C)Sc2nc(-c3ccco3)c(C#N)c(=O)[nH]2)cc1 (stereo not drawn) | inactive: -11.1% | – |
| COCC(=O)Nc1cc(C(=O)N2CCCOc3c(cccc3OC)C2)c2c(c1)nc(C1CCC1)n2C | inactive: -15% | – |
| CC(=O)N1CCN(c2ccccc2NC(=S)NC(=O)c2cc3ccccc3o2)CC1 | – | inconclusive [inhibitor, single point] |
| CCCCC(=O)NC(c1ccc(Cl)cc1Cl)c1ccc2cccnc2c1O (stereo not drawn) | – | active: 2.91 µM |
| CCCC(=O)NCCCc1nc2ccccc2n1C(C)C | – | active: 14.6 µM |
| O=C(Cc1ccccc1)Nc1cccc(-c2nc3ncccc3o2)c1 | – | inconclusive [inhibitor, single point] |
| Cc1nc2ccc(S(=O)(=O)CCC(=O)Nc3ccc(C(C)C)cc3)cc2s1 | – | inconclusive [inhibitor, single point] |
| Cc1cccc(N2CCN(S(=O)(=O)c3ccc4c(c3)C(C)(C)C(=O)N4C)CC2)c1C | – | inconclusive [inhibitor, partial curve, poor fit] |
| CN(CC(=O)Nc1cccc2ccccc12)c1ccc(S(=O)(=O)N2CCOCC2)cn1 | – | inconclusive [inhibitor, single point] |
| O=C(CCNC(=O)c1ccccc1Cl)NCCc1ccc(C(F)(F)F)cc1 | inactive: -10.5% | – |
| N#Cc1c([N+](=O)[O-])cc([N+](=O)[O-])cc1S(=O)(=O)Cc1ccccc1 | – | active: 0.184 µM |
| COC(=O)[C@@]12CCCN1[C@H](c1ccc(-c3ccc4c(c3)OCO4)cc1)[C@H]1C(=O)N(C)C(=O)[C@H]12 | – | inconclusive [inhibitor, partial curve] |
